Laboratory results published in PubChem BioAssay AID463173 (ICCB-Longwood Screening Facility, Harvard Medical School, 2010).
Screen size: about 52,000 compounds; about 1,700 (3.3%) were called active. Rule as the data show it: active = survival mostly below about 52% (no sharp cut-off); inactive = mostly above about 56%. The list shows a part of the results.

test system: Wild type; assay: growth inhibition of S. aureus wild type versus tarO mutant, primary screen, teichoic acid synthesis inhibitors, RN4220, OD600 (AID 463173); conditions: S. aureus RN4220 wild type/DeltatarO growth, OD600, 18 h, active compounds read low, screened at 18.75 µg/mL (by protocol)

Structure (SMILES) | survival
CCOC(=O)N1N=C(C)CC1(O)c1ccccc1 (stereo not drawn) | inactive: 107%
O=C(COc1ccccc1F)Nc1ccc2nc(SCC(=O)N3CCCC3)sc2c1 | inactive: 82%
CC(CN1CCOCC1)OC(=O)C1c2ccccc2Oc2ccccc21 (stereo not drawn) | inactive: 103%
COc1cc(NC(=O)Cn2cnc3sc(C)c(S(=O)(=O)N4CCC(C)CC4)c3c2=O)cc(OC)c1OC | inactive: 82%
Cc1ccc2c(=O)c(C(=O)c3ccccc3)cn(CC(=O)Nc3ccccc3C)c2n1 | inactive: 65%
Cc1cccc(OCC(=O)Nc2nonc2-c2ccc(Br)cc2)c1C | inactive: 79%
Cc1cccc(C)c1-n1ncc(C(=O)NCc2ccc3c(c2)OCO3)c1C1CCN(C(=O)OC(C)(C)C)CC1 | inactive: 131%
CCc1ccc(OCC(=O)N(Cc2ccc(C)cc2)Cc2ccco2)cc1 | inactive: 100%
CCOc1ccc(CC(=O)Nc2ccc3c(c2)N(C)C(=O)c2ccccc2S3)cc1OCC | inactive: 78%
O=C(COc1ccc(Cl)cc1)Nc1sc2c(c1C(=O)Nc1cccc(Cl)c1)CCCC2 | inactive: 148%
CC(=O)N1c2ccc(S(=O)(=O)NCC3CCC(C(=O)Nc4ccccc4C)CC3)cc2CC1C (stereo not drawn) | inactive: 111%
O=C(Nc1ccc(OC(F)(F)F)cc1)C1CCCN(S(=O)(=O)c2cccc3nonc23)C1 (stereo not drawn) | inactive: 83%
CCCCN(C)CCCNC(=O)c1cc(=O)[nH]c2ccc(S(=O)(=O)N3CCCCC3)cc12 | inactive: 73%
O=C(O)CCCN1C(=O)C(O)=C(C(=O)/C=C/c2ccccc2)C1c1ccccc1 (stereo not drawn) | inactive: 98%
COCCCNC(=O)CN1C(=O)COc2ccc(S(=O)(=O)N3CCCCCC3)cc21 | inactive: 77%
COc1ccc2c(c1)CCc1sc(NC(=O)c3ccc(Cl)cc3)nc1-2 | inactive: 44%
CCC1=Nc2cc(C(=O)NC(C)c3ccccc3)ccc2Sc2ccc(Cl)cc21 (stereo not drawn) | inactive: 94%
Cc1cccc(-n2cc(-c3ccccc3)c3c(NC(C)C)ncnc32)c1 | inactive: 153%
CC1CCN(S(=O)(=O)c2cn(CC(=O)Nc3ccc(F)c(Cl)c3)c(=O)c3ccccc23)CC1 | inactive: 69%
COc1ccc(-n2c(=O)c3ccccc3n(CC(=O)NCCc3ccccc3)c2=O)c(OC)c1 | inactive: 72%
Cc1ccc(NC(=O)CCc2c(C)nc3c(-c4ccccc4)c(C)nn3c2C)c(C)c1 | inactive: 81%
CN(Cc1ccccc1)C(=O)CCS(=O)(=O)c1cc(Br)cc2c1N(C(=O)C1CC1)CC2 | inactive: 84%

Structure (SMILES) | survival
O=C(CSc1nccn1-c1cccc(Cl)c1)Nc1cccc(C(F)(F)F)c1 | inactive: 74%
COc1ccccc1-c1ccc(=O)n(CC(=O)NC(C)(C)C)n1 | inactive: 103%
COC(=O)c1ccccc1NC(=O)CN(c1ccccc1OC)S(C)(=O)=O | inactive: 80%
Cc1ccc(NC(=O)CSc2nc(-c3ccc(F)cc3)nc3c2Cc2c(CO)cnc(C)c2O3)cc1C | inactive: 83%
O=C(COc1ccccc1F)Nc1ccccc1OCc1cc(=O)n2ccccc2n1 | inactive: 79%
CCCNC(=O)c1cc(-c2ccccc2)on1 | inactive: 106%
N#C/C(=C/c1ccc(-c2cc(C(=O)O)ccc2Cl)o1)C(=O)NCCc1c[nH]c2ccccc12 | inactive: 105%
CC(C)c1ccc(NC(=O)c2ccc(F)c(S(=O)(=O)N3CCCC3)c2)cc1 | inactive: 76%
CC1CCN(C(=O)Cn2cc(SCc3ccccc3)c3ccccc32)CC1 | inactive: 79%
CCCc1nnc(N2C(=O)c3oc4ccc(F)cc4c(=O)c3C2c2ccc(C(=O)OC)cc2)s1 (stereo not drawn) | inactive: 75%
COc1ccccc1OCC(=O)Nc1nnc2n1CCS2 | inactive: 85%
O=C(C1CCC1)N1CCc2cc(S(=O)(=O)N3CCN(c4ccccc4)CC3)ccc21 | inactive: 63%
CC1CCN(c2nnc(-n3cccc3CNc3cccc(F)c3)s2)CC1 | inactive: 78%
O=C(NC1CCCCC1)N(Cc1nc2ccccc2c(=O)[nH]1)C1CCCC1 | inactive: 107%
O=S(=O)(c1ccc(S(=O)(=O)N(Cc2ccccc2)Cc2ccco2)cc1)N1CCCCCC1 | inactive: 105%
CCOc1ccc(-n2cc(C(=O)Nc3ccccc3OCC)c3cc(OC)c(OC)cc3c2=O)cc1 | inactive: 70%
COc1cc2ccccc2cc1C(=O)N1CCN(c2nc3c(C)cc(C)cc3s2)CC1 | inactive: 134%
CCC(C)NC(=O)Cn1c(=O)n(CC2CCC(C(=O)NC)CC2)c(=O)c2sccc21 (stereo not drawn) | inactive: 70%
Cc1cccc(NC(=O)C2CCN(S(=O)(=O)c3cccc4nsnc34)CC2)c1 | inactive: 88%
Cc1ccc2nc(-c3ccccc3O)c(Nc3ccccc3C)n2c1 | inactive: 79%
CCOC(=O)c1c(NC(=O)CS(=O)(=O)c2ccc(C)cc2)sc2c1CCC(C)C2 (stereo not drawn) | inactive: 73%
CC1CCN(C(=O)Cn2cc(SCc3cccc(F)c3)c3ccccc32)CC1 | inactive: 80%

Structure (SMILES) | survival
CCc1ccccc1NC(=O)N1CCN(c2nnc(C)c3c(C)n(-c4ccccc4)nc23)CC1 | inactive: 67%
NC(=O)CSc1nnc(-c2ccccc2)o1 | inactive: 103%
COc1ccc(CNC(=O)CCc2cn(Cc3cc(C)ccc3C)c3ccccc23)cc1OC | inactive: 69%
O=c1cc(-c2ccccc2)nc(SCc2nc(-c3ccc(C(F)(F)F)cc3)no2)[nH]1 | inactive: 150%
O=C1OC(Nc2ccccc2C(F)(F)F)c2ccccc21 (stereo not drawn) | inactive: 108%
O=C(CCc1ccccc1)NN1C(=O)c2ccccc2C1=O | inactive: 107%
CC(C)(C)c1ccc(-c2nc3cc(NC(=O)c4cc5ccccc5o4)ccc3o2)cc1 | inactive: 79%
CCCOc1ccc(-c2nc3ccccc3c(=O)o2)cc1 | inactive: 70%
COc1ccc(NC(=O)NC2COc3ccccc3C2)c(OC)c1 (stereo not drawn) | inactive: 88%
Cc1c(C(=O)Nc2nc(-c3ccc(F)cc3)ns2)oc2ccc(Br)cc12 | inactive: 85%
CC(C)c1ccc(NC(=O)C2CCN(S(=O)(=O)c3cccc4nsnc34)CC2)cc1 | inactive: 85%
O=C(Cn1ccn(-c2cccc(Cl)c2)c(=O)c1=O)NCCc1ccccc1 | inactive: 84%
CN(CC(=O)Nc1cccc(Cl)c1)S(=O)(=O)c1ccc2[nH]c3c(c2c1)CCCC3 | inactive: 92%
COc1ccc2c(c1)cc(CNc1ccc(OC)c(OC)c1)c(=O)n2CC(=O)Nc1ccc(F)cc1 | inactive: 81%
COc1ccc(N2CCN(C(=O)CCc3c(C)nc4c(-c5ccccc5)c(C)nn4c3C)CC2)cc1 | inactive: 71%
COc1ccccc1CNC(=O)CCCCn1c(=O)c2ccccc2n(Cc2c(C)cc(C)cc2C)c1=O | inactive: 96%
COc1ccc(CNC(=O)Cn2c(=O)oc3cc(S(=O)(=O)N4CCCCCC4)ccc32)cc1 | inactive: 66%
Cc1c(C(=O)Nc2ccc(F)c(F)c2)oc2ccc(S(=O)(=O)N3CCCCC3)cc12 | inactive: 64%
Cc1ccccc1Nc1ccc2noc3c2c1C(=O)c1ccccc1-3 | inactive: 101%
COc1ccccc1CNC(=O)CCc1c(C)c2ccc(OC)c(C)c2oc1=O | inactive: 80%
O=S(=O)(NCC(c1ccco1)S(=O)(=O)c1ccccc1)c1ccccc1 (stereo not drawn) | inactive: 99%
Cc1cc(C)n2nc(SCC(=O)Nc3cc(Cl)ccc3C)nc2n1 | inactive: 70%

Structure (SMILES) | survival
Cc1cc(N2CCN(C)CC2)nc2ccc(NC(=O)Nc3ccccc3Br)cc12 | inactive: 72%
CCOc1ccc(S(=O)(=O)N(CC(=O)Nc2cccnc2)c2ccccc2)cc1 | inactive: 125%
COc1ccc(CCNC(=O)c2ccc3c(c2)N(Cc2ccc(C)cc2)CCS3)cc1OC | inactive: 125%
COCCNC(=S)N1CCN(c2ccc(S(=O)(=O)N3CCCC3)cc2)CC1 | inactive: 99%
CC(C)N(C(=O)CSc1nnnn1C1CCCC1)C(C)C | inactive: 100%
CC1=C(C(N)=O)C(c2ccc(C(C)C)cc2)n2nc(SCc3ccccc3)nc2N1 (stereo not drawn) | inactive: 82%
CCn1c(=NC(=O)c2ccc(S(=O)(=O)N3CCCCC3)cc2)sc2cccc(OC)c21 | inactive: 68%
CCc1nn2c(-c3ccccc3OC)ccnc2c1-c1ccc(F)cc1 | active: -11%
CCOC(=O)c1cccc(NC(=O)CC(c2cc(OC)c(OC)c(OC)c2)N2Cc3ccccc3C2=O)c1 (stereo not drawn) | inactive: 68%
COc1ccc(CCNc2nc(-c3ccc(C)cc3)cc(C(F)F)n2)cc1OC | inactive: 100%
Cc1cccc(NC(=O)c2oc3c(c2C)-c2[nH]ncc2CC3)c1C | inactive: 88%
CCOC(=O)C1CCN(c2c(C(=O)c3ccc(OCC)cc3)cnc3ccc(OC)cc23)CC1 | active: 0%
Oc1c(C(c2ccccc2F)N2CCOCC2)sc2nc(-c3ccco3)nn12 (stereo not drawn) | inactive: 73%
COC(=O)c1ccc(NC(=O)CCc2c(C)nc3c(c(C)nn3-c3ccc(C)cc3)c2C)cc1 | inactive: 76%
CC(NC(=O)CSc1n[nH]c(-c2ccccc2Cl)n1)c1nc2ccccc2n1C (stereo not drawn) | inactive: 128%
Cc1c(Cl)cccc1NC(=O)CC(c1cccs1)N1Cc2ccccc2C1=O (stereo not drawn) | active: 0%
CCN(c1ccccc1)S(=O)(=O)c1ccc2[nH]cc(C(=O)NC3CCCCC3)c(=O)c2c1 | inactive: 105%
Cc1nc2c(C(=O)NCc3ccccc3Cl)c[nH]n2c(=O)c1Cc1cccc(Cl)c1 | active: -15%
COc1c(C)cc(S(=O)(=O)Nc2cccc(-c3ccc(N4CCOCC4)nn3)c2)c(C)c1C | inactive: 81%
CCOc1ccc(NC(=O)CN2CCN(Cc3ccccc3)S2(=O)=O)cc1 | inactive: 77%
Cc1cc(=O)[nH]c2nnc(SCc3ccc(Cl)c(Cl)c3)n12 | inactive: 113%
COc1cccc(NC(=O)CSc2cc(=O)n(C)c3ccc(Cl)cc23)c1 | inactive: 80%
